Results taken from the supplement of paper PMC7125110.
± gives the standard error. Variants at the floor of the assay are shown more often than the library holds them.

B1: glmS ribozyme (parent)
chain: AUAAAAGCGCCAGAACUACAGAAAUGUAGUUGACGAGGAGGAGGUUUAUCGAAUUUUCGGCGGAUGCCUCCAAA

Key:
Conditions in all cases: with glucosamine-6-phosphate
[1] = variants of: B1; test: self-cleavage kobs at 40 uM GlcN6P; higher = faster cleavage; RNA array
Outline: (§1)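 kobs was derived by fitting per-tile medians to one- or two-exponential decays after normalising signals to baseline and to non-cleaving reference variants. Those signals came from barcoded ribozyme variants transcribed in situ by E. coli RNA polymerase on sequenced MiSeq chips, followed through a hybridised Cy3 probe at 37 °C and imaged over ~14 h. Glucosamine-6-phosphate (40 μM to 10 mM) in HEPES/KCl/Mg(OAc)2 buffer was flowed in. Weighted Michaelis–Menten fits across concentrations then gave kcat and KM.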

[2] = variants of: B1; test: self-cleavage kobs at 10000 uM GlcN6P; higher = faster cleavage; RNA array
Outline: as §1

[3] = variants of: B1; test: self-cleavage kobs at 640 uM GlcN6P; higher = faster cleavage; RNA array
Outline: as §1

[4] = variants of: B1; test: self-cleavage kobs at 160 uM GlcN6P; higher = faster cleavage; RNA array
Outline: as §1

[5] = variants of: B1; test: self-cleavage kobs at 2500 uM GlcN6P; higher = faster cleavage; RNA array
Outline: as §1

Row | Variant | self-cleavage kobs at 40 uM GlcN6P [1] | self-cleavage kobs at 10000 uM GlcN6P [2] | self-cleavage kobs at 640 uM GlcN6P [3] | self-cleavage kobs at 160 uM GlcN6P [4] | self-cleavage kobs at 2500 uM GlcN6P [5]
1 | A12U U47A | 0.00189 ± 0.00018 s⁻¹ |  |  |  | 
2 | A12C U30C C34G A42G | < 1e-05 s⁻¹ |  |  |  | 
3 | C11G G40A G43A | < 1e-05 s⁻¹ | < 1e-05 s⁻¹ |  |  | 
4 | C11G G40U A53G G62C C71G | < 1e-05 s⁻¹ |  |  |  | 
5 | A12G G13A | < 1e-05 s⁻¹ |  |  |  | 
6 | C11G G13A G32U G38U G44A C67G | < 1e-05 s⁻¹ |  |  |  | 
7 | A12U U69G | 2.68e-05 ± 8.8e-06 s⁻¹ | 0.000145 ± 1.5e-05 s⁻¹ | 9.2e-05 ± 1e-05 s⁻¹ | 2.7e-05 ± 8.8e-06 s⁻¹ | 0.000109 ± 1e-05 s⁻¹
8 | A12G U30A G38A | < 1e-05 s⁻¹ | < 1e-05 s⁻¹ |  |  | 
9 | C11U A33U G43U A53C U54A | < 1e-05 s⁻¹ | < 1e-05 s⁻¹ |  |  | 
10 | C11G G51C | < 1e-05 s⁻¹ |  | < 1e-05 s⁻¹ | < 1e-05 s⁻¹ | < 1e-05 s⁻¹
11 | A12U U45G | 0.000515 ± 6.4e-05 s⁻¹ | 0.0165 ± 0.0026 s⁻¹ | 0.00546 ± 0.0011 s⁻¹ | 0.00127 ± 0.00021 s⁻¹ | 0.0134 ± 0.0027 s⁻¹
12 | C11G G43C U57C G60A C68A | < 1e-05 s⁻¹ | < 1e-05 s⁻¹ |  |  | 
13 | A12U A36G C58U A64G C68U C70U | < 1e-05 s⁻¹ | < 1e-05 s⁻¹ |  |  | 
14 | A12U G41U A42G | 0.000102 ± 1.6e-05 s⁻¹ | 0.00149 ± 0.0003 s⁻¹ |  |  | 
15 | A12C G60U | < 1e-05 s⁻¹ |  | < 1e-05 s⁻¹ | < 1e-05 s⁻¹ | 
16 | C11U A14G A52C G60U | < 1e-05 s⁻¹ |  | < 1e-05 s⁻¹ | < 1e-05 s⁻¹ | < 1e-05 s⁻¹
17 | C11G A39U G60A | < 1e-05 s⁻¹ |  |  | < 1e-05 s⁻¹ | 
18 | G13A G60C | < 1e-05 s⁻¹ | < 1e-05 s⁻¹ | < 1e-05 s⁻¹ |  | 
19 | A12G A52G | < 1e-05 s⁻¹ |  |  |  | 
20 | G13C A14C A39U G62C | < 1e-05 s⁻¹ | < 1e-05 s⁻¹ |  | < 1e-05 s⁻¹ | 
21 | A12G G13C A33C G44C U49G | < 1e-05 s⁻¹ | < 1e-05 s⁻¹ |  |  | 
22 | A12C A48C | < 1e-05 s⁻¹ |  |  |  | 
23 | A12C A48U | < 1e-05 s⁻¹ |  |  |  | 
24 | A12G A33U | < 1e-05 s⁻¹ | < 1e-05 s⁻¹ |  |  | 
25 | A12U A36G A52U C71G | < 1e-05 s⁻¹ | < 1e-05 s⁻¹ |  |  | < 1e-05 s⁻¹
26 | G13C A39C U49C G62C | < 1e-05 s⁻¹ |  |  |  | 
27 | G13A C68U C71A | < 1e-05 s⁻¹ | < 1e-05 s⁻¹ |  |  | 
28 | C11G G62U | < 1e-05 s⁻¹ | < 1e-05 s⁻¹ | < 1e-05 s⁻¹ |  | < 1e-05 s⁻¹

Row | Variant | self-cleavage kobs at 40 uM GlcN6P [1] | self-cleavage kobs at 10000 uM GlcN6P [2] | self-cleavage kobs at 640 uM GlcN6P [3] | self-cleavage kobs at 160 uM GlcN6P [4] | self-cleavage kobs at 2500 uM GlcN6P [5]
29 | A12G G35C A36C | < 1e-05 s⁻¹ |  |  |  | 
30 | C11G G35U A36G G38C U55G | < 1e-05 s⁻¹ |  | < 1e-05 s⁻¹ | < 1e-05 s⁻¹ | < 1e-05 s⁻¹
31 | A12U U46C U49G U65C | < 1e-05 s⁻¹ |  |  |  | 
32 | G13A U56A G60C G62A C67G C71U | < 1e-05 s⁻¹ |  |  |  | 
33 | G13A A36U G51U | < 1e-05 s⁻¹ | < 1e-05 s⁻¹ | < 1e-05 s⁻¹ |  | < 1e-05 s⁻¹
34 | A12U G66C | 6.36e-05 ± 1.1e-05 s⁻¹ | 0.00177 ± 0.00022 s⁻¹ | 0.00058 ± 0.00016 s⁻¹ |  | 0.00145 ± 0.00028 s⁻¹
35 | G13C G35C G60U | < 1e-05 s⁻¹ | < 1e-05 s⁻¹ |  |  | 
36 | A12G G13A G59A | < 1e-05 s⁻¹ |  |  |  | 
37 | C11G C34U G51A A53C | < 1e-05 s⁻¹ | < 1e-05 s⁻¹ |  |  | 
38 | C11G C50A A52U G63A | < 1e-05 s⁻¹ | < 1e-05 s⁻¹ |  |  | 
39 | C11G C34G | < 1e-05 s⁻¹ | < 1e-05 s⁻¹ | < 1e-05 s⁻¹ | < 1e-05 s⁻¹ | 
40 | A12C G13A U45A C68U | < 1e-05 s⁻¹ |  |  |  | 
41 | C11G C16U A33U A52G | < 1e-05 s⁻¹ |  |  |  | 
42 | C11U G37U G43C | < 1e-05 s⁻¹ |  | < 1e-05 s⁻¹ | < 1e-05 s⁻¹ | 
43 | C11U G41U A42G | < 1e-05 s⁻¹ |  |  |  | 
44 | A12U G29U C61U | < 1e-05 s⁻¹ | < 1e-05 s⁻¹ |  |  | 
45 | A12C U56G | 0.000162 ± 2.5e-05 s⁻¹ |  | 0.00336 ± 0.00068 s⁻¹ | 0.000652 ± 0.00018 s⁻¹ | 0.0054 ± 0.0014 s⁻¹
46 | G13A G63A | < 1e-05 s⁻¹ |  |  |  | 
47 | C11U A15G A36C G62C U65C U69G | < 1e-05 s⁻¹ |  |  |  | < 1e-05 s⁻¹
48 | A12G A33G C34U A48C C71G | < 1e-05 s⁻¹ |  |  |  | 
49 | A12C U45G | 0.000128 ± 4.1e-05 s⁻¹ | 0.012 ± 0.004 s⁻¹ |  |  | 
50 | A12G G38C A39G G41U U46G U47A | < 1e-05 s⁻¹ | < 1e-05 s⁻¹ |  |  | < 1e-05 s⁻¹
51 | A12C A42U A64G | < 1e-05 s⁻¹ |  | < 1e-05 s⁻¹ |  | 
52 | C11U A15C G51U C70A | 6.91e-05 ± 1.9e-05 s⁻¹ | 5.08e-05 ± 2e-05 s⁻¹ |  |  | 0.000111 ± 3.3e-05 s⁻¹
53 | G13A A48U | < 1e-05 s⁻¹ |  | < 1e-05 s⁻¹ | < 1e-05 s⁻¹ | 
54 | A12C G35A | < 1e-05 s⁻¹ | < 1e-05 s⁻¹ | < 1e-05 s⁻¹ | < 1e-05 s⁻¹ | < 1e-05 s⁻¹
55 | C11U U47G A48C | < 1e-05 s⁻¹ |  |  |  | 
